According to PubChem BioAssay AID1865 (National Center for Advancing Translational Sciences (NCATS), 2009):
“And” between values parts separate entries of the source, which are not always exact repeats. Identical values can stand only once. Among all 280,000 compounds or so, about 540 (0.19%) were called active. The inconclusive results got no clear call from the source; some entries with a clear call stand among them for comparison. The call rests on the fitted dose curve; in most records, active means well fitted activation curve with a large enough effect; inconclusive means small, poorly fitted or top-dose-only effect; inactive means flat fitted curve, though single readings scatter. Potencies beside an inconclusive call are fits to weak or partial responses and may not hold up.

Assay: Quantitative High-Throughput Screen for Regulators of Epigenetic Control; further: nearly all actives have a fitted effect of over 60% in size
Settings: murine LDR cells, GFP reporter derepression, 30 h; series mostly up to 53.9 µM
From the text: NIH Molecular Libraries Screening Centers Network [MLPCN] NIH Chemical Genomics Center [NCGC] MLSCN Grant: 1 X01 MH079860-01 Assay Provider: Elisabeth D. Martinez, University of Texas SW Medical Center NCGC Assay Overview: The Locus Derepression (LDR) assay detects the derepression or induction of a GFP reporter that is stably integrated in a genomic region of murine cells that is presumably silenced. Transcription of the GFP reporter is controlled by a CMV promoter, which normally is constitutively active. However, this cell line, termed LDR, was selected for lack of constitutive production of GFP. GFP production can be induced by incubating the cells with histone deacetylase or DNA methyltransferase inhibitors (Martinez et al., 2006). Compounds that derepress or induce this reporter locus are identified by enumerating GFP positive cells using a laser-scanning microplate cytometer (Auld et al., 2006). This assay was screened against the MLSMR earlier (AID 597; (Johnson et al., 2008) and has been rescreened here against the expanded collection.
NCGC Assay Protocol Summary: Three hundred LDR cells in 5 uL per well were dispensed into black, clear-bottom 1536-well plates. Twenty-three nL compound was transferred to the assay plate and cells were incubated 30 hours at 37 C. Medium was removed, cells were washed two times with PBS, and GFP-positive cells were enumerated as fluorescent objects between the sizes of 20 to 120 um width and depth using an Acumen Explorer. References Auld, DS, Johnson, RL, Zhang, YQ, Veith, H, Jadhav, A, Yasgar, A, Simeonov, A, Zheng, W, Martinez, ED, Westwick, JK, Austin, CP, Inglese, J (2006). Fluorescent protein-based cellular assays analyzed by laser-scanning microplate cytometry in 1536-well plate format. Methods Enzymol 414: 566-89. Johnson, RL, Huang, W, Jadhav, A, Austin, CP, Inglese, J, Martinez, ED (2008). A quantitative high-throughput screen identifies potential epigenetic modulators of gene expression. Anal Biochem 375: 237-48. Martinez, ED, Dull, AB, Beutler, JA, Hager, GL (2006). High-content fluorescence-based screening for epigenetic modulators. Methods Enzymol 414: 21-36.
Potency means the concentration at half of the fitted maximal effect; tags describe the fitted curve by direction and shape.

Compound | Potency
COc1ccccc1NC(=O)CSc1oc(-c2ccccc2)nc1S(=O)(=O)c1ccc(C)cc1 | inactive
COC(=O)[C@H](CCSC)NC(=O)Nc1ccc(C(C)=O)cc1 | inconclusive: 6.31 µM [activator, single point]
COc1ccc(CCNC(=O)Cn2cc(S(=O)(=O)Cc3ccccc3Cl)c3ccccc32)cc1OC | inactive
CCOC(=O)N1CC=C2C(C#N)=C(N)C(C#N)(C#N)[C@H](c3ccccc3OCC)[C@H]2C1 | inactive
CCOC(=O)/C(=C/C=C1\Sc2cc(OCC)c(OCC)cc2N1CC)C(C)=O | active: 22.4 µM
COc1ccccc1NC(=O)COc1ccc(/C=N/NC(=O)CSCc2cc(C)cc(C)c2)cc1 | inactive
CCc1cccc(NC(=O)CSc2ncc3c(n2)-c2ccccc2N(CC)S3(=O)=O)c1 | inconclusive: 15.8 µM [activator, single point]
O=C(Nc1nc(-c2cccs2)c(C(=O)C(F)(F)F)s1)c1ccco1 | inactive
Cc1nn(-c2ccccc2)cc1/C=N/NC(N)=S | inconclusive: 35.5 µM [activator, single point]
CN(Cc1ccccc1)C(=O)C1CCC(CNS(=O)(=O)c2ccc3c(c2)CCCC(=O)N3)CC1 (stereo not given) | inconclusive: 0.0141 µM [activator, partial curve, poor fit]
O=C1OCCC1S(=O)(=O)c1ccc2ccccc2c1 (stereo not given) | inconclusive: 4.47 µM [activator, single point]
C/C(N)=C(/C#N)C(=O)COC(=O)c1cc(C)n(-c2ccc(F)cc2)c1C | inconclusive: 17.8 µM [activator, partial curve]
Cn1c(=O)oc2cc(S(=O)(=O)N3CCCC(C(=O)Nc4ccc(Br)cc4F)C3)ccc21 (stereo not given) | inconclusive: 15.8 µM [activator, single point]
O=C(NC(=C(Cl)Cl)S(=O)(=O)c1ccc(Cl)cc1)c1ccccc1 | inconclusive: 22.4 µM [activator, single point]
CCOC(=O)c1ccccc1NC(=O)Cn1c(-c2nonc2N)nc2ccccc21 | inactive
COc1cccc(N2CCN(c3ccc(N4C(=O)CCC4=O)cc3[N+](=O)[O-])CC2)c1 | inactive
CCC(Sc1nnc(-c2ccc(OC)cc2)c(-c2ccc(OC)cc2)n1)C(=O)NC1CCCCC1 (stereo not given) | inconclusive: 35.5 µM [activator, single point]
c1ccc(SCCOCCN2CCc3ccccc3C2)cc1 | inactive
CCC1CCCCN1C(=S)NC(=O)c1ccc([N+](=O)[O-])cc1 (stereo not given) | inconclusive: 5.62 µM [activator, single point]
CCN1/C(=C/c2ccc3cccc(C)c3[n+]2CC)Sc2ccccc21 | inconclusive: 0.447 µM [activator, full curve, poor fit]
COc1ccc(CNC(=O)C(C#N)c2nc3ccccc3nc2N2CCCC2)cc1 (stereo not given) | inconclusive: 31.6 µM [activator, single point]
COc1ccc(OC)c2c(N3CC(C)OC(C)C3)cc(C(F)(F)F)nc12 (stereo not given) | inactive
CC1=C(C(=O)OCc2ccc(C)cc2)C(c2c(Cl)cccc2Cl)CC(=O)N1 (stereo not given) | inconclusive: 6.31 µM [activator, single point]
CCCC(=O)NC(c1ccccc1OC)c1ccc2cccnc2c1O (stereo not given) | active: 7.08 µM

Compound | Potency
CN(C)NC(=S)NC(=O)C12CC3CC(CC(C3)C1)C2 | inconclusive: 25.1 µM [activator, single point]
O=C(Nc1cc(-c2nc3cc(Cl)ccc3o2)ccc1Cl)c1cccs1 | inconclusive: 31.6 µM [activator, single point]
O=C1C2=CC[C@H]3C(=O)N(c4cccc(Oc5ccccc5)c4)C(=O)[C@@H]3[C@@H]2[C@H](O)[C@@H]2O[C@H]12 | inconclusive: 5.62 µM [activator, single point]
Cn1c(SCC(=O)c2cc3ccccc3o2)nnc1-c1ccccc1 | inconclusive: 31.6 µM [activator, single point]
O=C(N/N=C/c1ccc([N+](=O)[O-])o1)c1ccc(NS(=O)(=O)c2cccs2)cc1 | inconclusive: 35.5 µM [activator, single point]
Cc1cc2ccccc2n1CCNC(=O)COc1ccccc1 | inactive
COCCCNC(=O)c1c(NC(=O)c2nc(S(C)(=O)=O)ncc2Cl)sc2c1CCCC2 | inconclusive: 4.47 µM [activator, single point]
Cc1ccc2c(=O)c(C(=O)c3ccc(F)cc3)cn(CC(=O)NCc3ccccc3)c2n1 | inconclusive: 15.8 µM [activator, single point]
CCN(CC)c1ccc(NC(=O)CSc2nnc(C)c(=O)[nH]2)cc1 | inactive
COc1ccc2c(c1)c1c(c(=O)n(-c3ccccc3C)c(=O)n1CC(=O)NCc1ccc(C)cc1)n2C | inconclusive: 35.5 µM [activator, single point]
COC(=O)Cc1ccc(NC(=S)N2CCCCC2C)cc1 (stereo not given) | inactive
c1cc2c3c(cccc3c1)NC1(CCC3(CC1)Nc1cccc4cccc(c14)N3)N2 | inactive
CCOC(=O)c1c(NC(=O)COc2ccccc2F)sc2c1CCCC2 | inconclusive: 3.98 µM [activator, single point]
O=C(CSc1nnc(C2CC2)n1-c1ccccc1)NCCc1ccccc1 | inactive
O=c1oc(-c2ccccc2F)nc2scc(-c3ccccc3)c12 | inconclusive: 35.5 µM [activator, single point]
CC1=CC(C)(C)Nc2ccc(OC(=O)CN3C(=O)c4cccc5cccc(c45)C3=O)cc21 | inconclusive: 35.5 µM [activator, single point]
Cc1ccc(-c2nnc(Nc3cccc(Cl)c3)c3ccccc23)cc1S(=O)(=O)NCC1CCCO1 (stereo not given) | inactive
O=C(Oc1cccc2cccnc12)c1cccc(N2C(=O)C3C4CCC(C4)C3C2=O)c1 (stereo not given) | inconclusive: 22.4 µM [activator, single point]
CC(C)(C)/C(O)=C/c1nc2cc(Cl)ccc2oc1=O | inconclusive: 5.01 µM [activator, full curve]
O=C(O)c1cccc(-c2ccc(/C=c3/sc4nc5ccccc5n4c3=O)o2)c1 | inconclusive: 22.4 µM [activator, single point]
COC(=O)C(O)(NC(=O)NC(C)=O)C(F)(F)F (stereo not given) | inconclusive: 5.62 µM [activator, single point]
CC(C)CN(c1ccccc1)S(=O)(=O)c1nnc(NC(=O)C2CCCCC2)s1 | active: 28.2 µM
CCCCN(CC)CCNC(=O)Cn1cnc2sc(C)c(S(=O)(=O)N3CCN(c4ccccc4OC)CC3)c2c1=O | inactive
O=C1CC(c2ccccc2)Cc2[nH]c(=O)c(-c3nc(-c4ccc(Cl)c(Cl)c4)cs3)cc21 (stereo not given) | inconclusive: 25.1 µM [activator, single point]

Compound | Potency
N=C1/C(=C/c2cccn2Cc2ccc(Cl)cc2)C(=O)N=C2SC=CN12 | inconclusive: 28.2 µM [activator, single point]
CCN1/C(=C2\SC(=S)N(Cc3ccccc3)C2=O)Sc2ccccc21 | active: 12.6 µM
COc1cc(/C=C/C(=O)/C=C(O)/C=C/c2ccc(O)c(OC)c2)ccc1O | active: 31.6 µM
COc1ccc2c(c1)c1c(c(=O)n(-c3ccc(F)c(Cl)c3)c(=O)n1Cc1ccccc1F)n2C | inconclusive: 20 µM [activator, single point]
CCOC(=S)SCC(=O)Nc1nc(C)c(C)s1 | inconclusive: 35.5 µM [activator, single point]
O=c1[nH]ncc2c3ccccc3n(Cc3ccc(F)cc3)c12 | inactive
O=C1c2ccccc2-c2onc3ccc(Oc4ccccc4)c1c23 | inconclusive: 5.62 µM [activator, single point]
COc1ccc(/C=C/c2nnc(NC(=O)COc3ccccc3)s2)cc1 | inactive
Oc1c(Cl)cc(Cl)c2cccnc12 | inconclusive: 35.5 µM [activator, single point] and inconclusive: 25.1 µM [activator, single point]
O=C(CSc1nnc(SCc2ccccc2)s1)N/N=C/C=C/c1ccco1 | inactive
CCOc1ccc2c(c1)c(=O)c(C(=O)c1ccccc1)cn2Cc1ccccc1F | inactive
Cc1cccc(/C=C/C(=O)c2cc(Br)ccc(=O)c2O)c1 | inconclusive: 22.4 µM [activator, single point]
NC(=O)c1c(NC(=O)CCCC(=O)O)sc2c1CCCCCC2 | inconclusive: 20 µM [activator, single point]
O=c1c(Cl)c2oc3ccccc3nc-2c2ccccc12 | active: 22.4 µM
Nc1cc(-c2ccc(Br)cc2)nn1Cc1ccccc1 | inactive
COc1ccc(CNc2ncncc2-c2ccccc2CN(C)C)c(OC)c1 | inactive
CCOc1ccc2nc3sc(C(=O)N4CCOCC4)c(N)c3cc2c1 | inactive
CSc1cccc(Nc2cc(C(=O)NCCCN(Cc3ccccc3)C(C)C)c3ccccc3n2)c1 | inconclusive: 31.6 µM [activator, single point]
CC(=O)Oc1cc2oc(=O)c3c(c2cc1Cl)CCC3 | inconclusive: 31.6 µM [activator, single point]
Cc1nn(Cc2ccc(F)cc2)c(C)c1NC(=O)c1cc(-c2ccco2)on1 | inconclusive: 31.6 µM [activator, single point]
N#Cc1c(-c2ccco2)nc(SCC(=O)Nc2cccc(Cl)c2)[nH]c1=O | inactive
O=c1cc(-c2c(F)c(F)c(F)c(F)c2F)oc2c(F)c(F)c(F)c(F)c12 | inconclusive: 5.62 µM [activator, single point]
